Experimental data as given in patent publication US20040197222A1 (priority 2002, published 2004).

What was measured:
[1] = tested on: 10^5 of B. stearothermophilus ATCC # 7953; experiment: Trailer field fumigation, combined-species spore strips incubated for B. stearothermophilus; assay type: cell-based, Bacillus stearothermophilus; settings: 303.7 oz/1,000 ft^3, 48 hours
[2] = tested on: B. subtilis var. niger strips containing 10^8 spores; assay type: cell-based, Bacillus subtilis var. niger
[3] = tested on: 10^6 spores of B. subtilis var. niger ATCC # 9372; assay type: cell-based, Bacillus subtilis var. niger

CBr [methyl bromide]
four: sites at which only one 10^8 strip survived ([2]; trailer fumigation, 20 sites, 48 hours)
10%: sites at which 3 of 4 strips were killed [2]
90%: sites at which all four test strips were killed [2]
16 sites: sites at which both B. subtilis 10^8 strips produced no vegetative cells during incubation [2]
pass: incubation result 10^5 B. stear. ([1]; trailer loc. 3-Behind wall paneling in insulation, mean 95.12 °F) | incubation result 10^5 B. stear. ([1]; trailer loc. 6-Closed kitchen cabinet, […]) | incubation result 10^5 B. stear. ([1]; trailer loc. 7-PC keyboard, inside back cover, […]) | incubation result 10^5 B. stear. ([1]; trailer loc. 8-PC CD tray, closed, […]) | incubation result 10^5 B. stear. ([1]; trailer loc. 9-Desk drawer, closed, […]) | incubation result 10^5 B. stear. ([1]; trailer loc. 10-Desk drawer, in closed hanging file, […]) | incubation result 10^5 B. stear. ([1]; trailer loc. 11-Ceiling surface, exposed, […]) | incubation result 10^5 B. stear. ([1]; trailer loc. 12-Floor surface, in closed folder, […]) | incubation result 10^5 B. stear. ([1]; trailer loc. 13-Mattress, under box spring, […]) | incubation result 10^5 B. stear. ([1]; trailer loc. 14-Hall closet, closed, […]) | incubation result 10^5 B. stear. ([1]; trailer loc. 15-Medicine cabinet, closed, […]) | incubation result 10^5 B. stear. ([1]; trailer loc. 16-Light fixture, secured globe, […]) | incubation result 10^5 B. stear. ([1]; trailer loc. 17-Central AC inlet, behind filter, […]) | incubation result 10^5 B. stear. ([1]; trailer loc. 18-Window AC, behind filter, […]) | incubation result 10^5 B. stear. ([1]; trailer loc. 19-Under newspapers, […]) | incubation result 10^6 B. sub. [3]
